In PMC4336329 (PLoS ONE, 2015):
Screen size: about 310,000 compounds; about 2,200 (0.71%) showed an effect of 50% or more. Effects have a minus sign here. This is one part of the list.

molecular target: human ether-à-go-go-related gene (hERG) potassium channel (human, UniProt Q12809); assay: primary screen, population patch clamp on CHO cells stably expressing hERG
Sequence (Q12809 whole entry, looked up): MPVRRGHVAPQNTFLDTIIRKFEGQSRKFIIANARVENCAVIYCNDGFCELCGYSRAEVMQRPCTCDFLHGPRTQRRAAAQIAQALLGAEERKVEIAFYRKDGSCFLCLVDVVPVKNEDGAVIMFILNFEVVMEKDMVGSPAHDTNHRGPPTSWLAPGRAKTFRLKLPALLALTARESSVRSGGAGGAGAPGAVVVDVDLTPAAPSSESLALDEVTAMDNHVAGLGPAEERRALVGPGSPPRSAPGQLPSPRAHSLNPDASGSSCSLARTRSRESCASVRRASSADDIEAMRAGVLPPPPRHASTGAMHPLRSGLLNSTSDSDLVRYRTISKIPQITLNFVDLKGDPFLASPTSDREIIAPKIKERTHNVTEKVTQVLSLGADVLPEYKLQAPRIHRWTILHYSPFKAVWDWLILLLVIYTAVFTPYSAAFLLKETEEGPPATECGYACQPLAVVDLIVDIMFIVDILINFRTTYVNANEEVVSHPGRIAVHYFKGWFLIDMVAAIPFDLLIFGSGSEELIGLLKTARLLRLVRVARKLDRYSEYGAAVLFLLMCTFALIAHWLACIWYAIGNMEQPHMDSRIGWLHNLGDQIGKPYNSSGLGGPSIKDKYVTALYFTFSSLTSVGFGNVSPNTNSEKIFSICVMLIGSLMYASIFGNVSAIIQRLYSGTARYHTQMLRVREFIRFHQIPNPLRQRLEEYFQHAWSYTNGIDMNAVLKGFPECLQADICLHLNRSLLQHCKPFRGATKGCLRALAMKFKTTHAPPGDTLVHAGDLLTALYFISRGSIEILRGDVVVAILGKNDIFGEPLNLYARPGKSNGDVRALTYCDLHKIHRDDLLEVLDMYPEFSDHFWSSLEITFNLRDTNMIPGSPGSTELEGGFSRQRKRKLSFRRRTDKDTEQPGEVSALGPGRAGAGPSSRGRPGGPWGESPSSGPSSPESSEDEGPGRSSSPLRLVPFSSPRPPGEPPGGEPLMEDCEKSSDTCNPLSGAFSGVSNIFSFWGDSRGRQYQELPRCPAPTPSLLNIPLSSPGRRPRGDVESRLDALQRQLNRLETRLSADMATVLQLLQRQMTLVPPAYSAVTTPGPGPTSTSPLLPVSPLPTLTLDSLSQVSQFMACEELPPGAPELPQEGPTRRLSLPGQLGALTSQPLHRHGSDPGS

Structure (SMILES)	hERG current change (%, negative = inhibition) at 1uM
CC(C)CCN(CCC(C)C)C(CO)(CO)CO	14.1%
CCn1c(=O)c(C(=O)NNC(=O)c2ccccc2)c(O)c2ccccc21	9.21%
Cl.O=C(COc1ccccc1Cc1ccccc1)NCCCN1CCOCC1	-1.12%
COC(=O)c1ccc(CNC(=O)C23CC4CC(CC(C4)C2)C3)cc1	3.43%
CCOC(=O)CNC(=O)CSc1nnc(-c2cccc(C)c2)n1-c1ccc(OC)cc1	-17.7%
Cc1ccc2cccc(OCC(=O)N3CC(C)CC(C)C3)c2n1 (stereo not drawn)	14.1%
Cc1scc(-c2n[nH]c(=S)n2Cc2ccccc2)c1C	7.51%
CN(C)CC/C=C1\c2cc(Cl)ccc2Sc2cc(F)c(F)cc21.Cl	12.7%
Cc1ccc(-c2n[nH]c(=S)n2/N=C/c2ccc(C)o2)cc1	12.3%
CC1(C)CC(=O)C(C=Nc2ccccc2)=C(O)C1	-5.2%
O=C(Cc1nn[nH]n1)c1ccccc1O	17.2%
CCOC(=O)/C(=N/Nc1ccc(OC)cc1)N1CCCc2ccccc21	8.74%
COc1cc(OC)nc(NC(=O)CCl)n1	-5.03%
COc1ccc(-n2c(Cc3cccn3C)nnc2SCC(=O)Nc2nccs2)cc1	-4.49%
O=C(C1=C(O)C(=O)N(CCN2CCOCC2)C1c1ccc(Cl)cc1)c1cc2ccccc2o1 (stereo not drawn)	13%
O=C(/C=C(\O)c1ccccc1)C(=O)NNC(=O)c1ccccc1	14.9%
O=[N+]([O-])c1ccc2ncnc(Nc3ccc4c(c3)OCCO4)c2c1	11.8%
CN(C(=O)COC(=O)c1ccc(S(=O)(=O)N2CCOCC2)cc1)C1CCCCC1	1.61%
CCCCCCCC[n+]1cccc2c3ccccc3ccc21.[I-]	-92%
O=C(CF)NC(NC(=S)Nc1ccccc1O)C(Cl)(Cl)Cl (stereo not drawn)	16.9%
CC(C)OC(=O)/C(=C/c1ccc2c(c1)c1ccccc1n2C)NC(=O)c1ccccc1	1.89%
CCC(C)NC(=O)c1cc(CC(C)C)on1 (stereo not drawn)	14.6%

Structure (SMILES)	hERG current change (%, negative = inhibition) at 1uM
CCc1ccccc1NC(=S)NNC(=O)c1ccccc1Cl	18%
CC(C)OCCCn1c(=N)c(S(=O)(=O)c2ccccc2)cc2c(=O)n3ccccc3nc21	-0.118%
CC1CCCC(C)N1/N=C/c1cccc([N+](=O)[O-])c1 (stereo not drawn)	15.2%
CN1CCN(c2ccc(S(=O)(=O)N3CCCCC3)cc2NC(=O)/C=C/c2ccc(OC(F)F)cc2)CC1	22.7%
CC(=O)Nc1cc(NC(C)=O)cc(C(=O)OCC(=O)c2ccc3c(c2)NC(=O)CO3)c1	2.38%
CCOC(=O)C1(Cc2ccccc2)CCN(Cc2cnn(-c3ccccc3)c2)CC1	-33%
N=c1c(C(=O)NCCN2CCOCC2)cc2c(=O)n3ccccc3nc2n1CCCN1CCOCC1	13.2%
CN1CCc2ccccc2Cc2[nH]c3ccccc3c2CC1	1.09%
COc1cc(C(=O)OC(C)CN2C(C)CCCC2C)cc(OC)c1OC.Cl (stereo not drawn)	-2.99%
CCCCN(CC)CCCNC(=O)c1cn(-c2ccc(OC)cc2)c(=O)c2ccccc12	-7.85%
Cc1nn(CCC(=O)O)c2nc(-c3cccnc3)cc(C(F)(F)F)c12.Cl	6.53%
CC(C)C(NC(=O)C1CCCCC1)C(=O)Nc1ccccn1 (stereo not drawn)	8.74%
Cc1cccc(OCC(=O)OCC(=O)c2c(N)n(C)c(=O)n(C)c2=O)c1	-6.69%
CCc1nc2ccccc2c(C(=O)OCC(=O)NC(=O)c2cccn2C)c1C	10.5%
CCOC(=O)N1CCN(C(=O)CCc2cc(OC)c(OC)c(OC)c2)CC1	6.56%
O=C(CCc1ccc(S(=O)(=O)N2CCOCC2)cc1)OCc1nc2ccccc2s1	8.85%
CC(C)N=C(NC#N)SCc1ccccc1F	1.31%
CCN1CCN(c2cc(C)c3cc(NC(=O)c4ccc(OC)c(OC)c4)ccc3n2)CC1	-4.89%
CCOC(=O)CN(C(=O)Cn1nnc2ccccc21)C(C(=O)NCCOC)c1ccccc1C (stereo not drawn)	8.01%
Cc1ccc(NC(=O)c2nnn(-c3cccc(C(F)(F)F)c3)c2N)cc1	-4.01%
COc1ccc2[nH]c(C)c(CCNC(=S)Nc3cc(C)ccc3C)c2c1	12.6%
COc1ccc(C2=COc3ccccc3C(=O)N2)cc1	4.38%

Structure (SMILES)	hERG current change (%, negative = inhibition) at 1uM
N#Cc1ccc(C(=O)N2CCN(C(=O)C3CCCO3)CC2)cc1 (stereo not drawn)	6.79%
c1ccc2sc(NC3=NCN(C4CCCCCC4)CN3)nc2c1	-5.32%
Cc1ccc(S(=O)(=O)c2cc3c(=O)n4ccccc4nc3n(CCCN3CCOCC3)c2=N)cc1C	2.37%
O=C(c1cc(COc2ccc(F)cc2F)on1)N1CC[C@@H]2CCCC[C@H]2C1	3.35%
Cc1cc(C(=O)N/N=C/C=C/c2ccc([N+](=O)[O-])cc2)n[nH]1	-0.637%
COC(=O)c1nn(-c2ccc(F)cc2)ccc1=O	5.3%
CC(=O)c1ccc(NC(=O)NNS(=O)(=O)c2ccc(F)cc2)cc1	13.6%
CCC1(c2ccccc2)NC(=O)N(CC(=O)Nc2cccc(S(=O)(=O)N3CCCC3)c2)C1=O (stereo not drawn)	3.13%
O=C(N/N=C/c1ccc([N+](=O)[O-])o1)c1ccc(NS(=O)(=O)c2cccs2)cc1	6.96%
CCOC(=O)C1=C(CC)OC(N)=C(C#N)C1c1ccc(OC)c(C)c1OC (stereo not drawn)	1.72%
Oc1cccc(C=NCc2ccccc2)c1	12.7%
Cc1ccc(CNC(=O)COc2ccc(S(=O)(=O)N3CCCC3)cc2)cc1	18.1%
CCC(C)N(C)C(=O)c1cc2ccccc2c(-c2ccccc2Cl)n1 (stereo not drawn)	-5.29%
Cc1ccc(-c2nc3cnccn3c2Nc2ccccc2)o1	7.82%
CCOC(=O)Nc1ccc2c(c1)N(C(=O)CN)c1ccccc1CC2	2.32%
CCCOc1ccc(-c2c(C(=O)N/N=C(\C)c3cccs3)nnn2-c2nonc2N)cc1	13.6%
Nc1ccc(C(=O)OCC(=O)NC(=O)c2ccccc2)cc1[N+](=O)[O-]	19.7%
COc1cc(/C=C2/C(=N)N3C(c4ccccc4)=CSC3=NC2=O)ccc1OCC(=O)O	9.21%
CCOC(=O)C1(Cc2cccc(F)c2)CCN(Cc2ccc(COC)o2)CC1	7.47%
CCc1ccccc1S(=O)(=O)Cc1ccc(C(=O)NCCc2ccccc2)o1	3.66%
Cc1ccc(NC(=O)CN2C(=O)NC3(CCc4ccccc43)C2=O)cc1Cl (stereo not drawn)	8.06%
CC(=O)NC1CCC(C(=O)O)(c2ccccc2)C1 (stereo not drawn)	-8.84%

Structure (SMILES)	hERG current change (%, negative = inhibition) at 1uM
COc1ccc(-c2csc(NC(=O)CSCc3c(C)noc3C)n2)c(OC)c1	5.97%
Cc1cc(C)cc(NC(=O)c2ccc3c(c2)CCN3S(C)(=O)=O)c1	1.92%
O=C(O)CCCNc1cc(N2CCN(C(=O)c3ccco3)CC2)c2noc3c2c1C(=O)c1ccccc1-3	19.4%
N#CCCN1CCN(S(=O)(=O)c2ccc(C#N)cc2)CC1	-0.107%
CCC/C(=N\NC(=O)CNC(=O)c1ccc(Cl)cc1)c1ccccc1	10.8%
Cc1ccc(S(=O)(=O)Cc2ccc(C(=O)N3CCN(c4ccc(F)cc4)CC3)o2)cc1	-18.6%
COc1ccc(/C=N/Nc2nc(=O)[nH]nc2C)cc1OC	2.61%
COc1ccc([N+](=O)[O-])cc1COc1ccc2c(-c3ccccc3)cc(=O)oc2c1	25.6%
Cc1nc(NCCN2CCOCC2)c2oc3ccccc3c2n1.Cl	-8.71%
COc1ccc(/C=N/NC(N)=S)cc1	3.33%
Cc1nnc(NC(=O)c2cc(S(=O)(=O)N3CCCCC3)ccc2Cl)s1	18.8%
Cc1cc(Br)ccc1NC(=S)N1CCOCC1	14.2%
Cn1c(SCC(=O)Nc2ccc(F)cc2)nc2c(c1=O)SCC2	8.63%
N#CCN1CCC(c2cc(-c3ccco3)n[nH]2)CC1	7.46%
O=C(CCN1C(=O)/C(=C/c2ccc3c(c2)OCO3)SC1=S)Nc1cccc(C(=O)O)c1	11.2%
CCOc1ccc(S(=O)(=O)Nc2cccc(C(=O)NCC(c3ccco3)N(C)C)c2)cc1 (stereo not drawn)	3.23%
Cc1ccc(S(=O)(=O)N(C)C)cc1NC(=O)c1ccccc1SCC(=O)N1CCCC1	17.7%
COc1ccc([N+](=O)[O-])cc1NCc1cccnc1	0.59%
CC(NC(=O)c1ccccc1NS(=O)(=O)c1ccc(CCC(=O)O)cc1)c1ccccc1 (stereo not drawn)	11.2%
CN(C(=O)COC(=O)Cc1c[nH]c2ccccc12)c1c(N)n(Cc2ccccc2)c(=O)[nH]c1=O	1.49%
CC(C(=O)N1CCC(C(N)=O)CC1)N(c1ccc(Oc2ccccc2)cc1)S(C)(=O)=O (stereo not drawn)	4.29%
